Experimental data reported in paper PMC10080908.
Residue numbers refer to the chain shown, from its start. No constants are given. Whether binding was seen depends on the method and setting. In cells and extracts the contact can be indirect. Some binding calls cover weakened binding; strength is not graded here. Sequences can lack the tags named with a protein. One block for each binder: values may come before it.

Experiments:
GST-UBXN7-UAS (human) = molecular target: T1, GST-UBXN7-UAS (human) (UniProt O94888); experiment: pull-down; 5 µg GST-UBXN7 constructs on Glutathione Sepharose, 1 h with HEK-293 cellular extracts (untransfected or transfected) in IP150 buffer; western blot; only the target purified
T1 sequence: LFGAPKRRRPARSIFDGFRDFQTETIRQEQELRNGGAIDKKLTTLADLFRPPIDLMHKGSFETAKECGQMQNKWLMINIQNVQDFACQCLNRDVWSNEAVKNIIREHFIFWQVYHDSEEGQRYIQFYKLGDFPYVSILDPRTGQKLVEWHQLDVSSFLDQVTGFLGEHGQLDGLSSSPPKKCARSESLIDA

GST-UBXN7-WT (human) = molecular target: T2, GST-UBXN7-WT (human) (UniProt O94888); experiment: as above
T2 sequence: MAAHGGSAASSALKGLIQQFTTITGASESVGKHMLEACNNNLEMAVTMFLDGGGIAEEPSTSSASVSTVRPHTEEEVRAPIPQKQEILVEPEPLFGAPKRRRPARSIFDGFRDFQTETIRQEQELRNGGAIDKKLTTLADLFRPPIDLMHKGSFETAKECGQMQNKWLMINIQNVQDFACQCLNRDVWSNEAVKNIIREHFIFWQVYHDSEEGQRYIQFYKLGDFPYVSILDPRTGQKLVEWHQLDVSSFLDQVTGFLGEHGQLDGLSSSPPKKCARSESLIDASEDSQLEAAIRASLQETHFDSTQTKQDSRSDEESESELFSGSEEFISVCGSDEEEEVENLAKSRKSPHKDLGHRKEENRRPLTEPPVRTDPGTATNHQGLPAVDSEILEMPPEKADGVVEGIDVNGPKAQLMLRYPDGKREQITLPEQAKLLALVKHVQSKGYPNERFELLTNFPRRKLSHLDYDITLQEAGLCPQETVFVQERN

Flag-PIRH2 (human) = molecular target: T3, Flag-PIRH2 (human) (UniProt Q96PM5); experiment: co-IP; Flag antibody and Protein G Sepharose, HEK-293 lysates in IP150 buffer, overnight at 4 °C; western blot with anti-Flag and anti-HA
T3 sequence: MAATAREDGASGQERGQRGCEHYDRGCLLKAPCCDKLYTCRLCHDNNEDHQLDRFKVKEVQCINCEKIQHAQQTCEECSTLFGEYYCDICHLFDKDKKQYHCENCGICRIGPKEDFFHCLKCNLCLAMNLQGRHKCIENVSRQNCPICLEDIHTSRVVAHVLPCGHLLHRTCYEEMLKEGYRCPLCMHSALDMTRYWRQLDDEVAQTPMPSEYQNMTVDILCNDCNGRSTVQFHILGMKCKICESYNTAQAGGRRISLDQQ

B3: Flag-TOPORS-Nter (domain or fragment, UniProt Q9NS56 1-247)
chain: MGSQPPLGSPLSREEGEAPPPAPASEGRRRSRRVRLRGSCRHRPSFLGCRELAASAPARPAPASSEIMASAAKEFKMDNFSPKAGTSKLQQTVPADASPDSKCPICLDRFDNVSYLDRCLHKFCFRCVQEWSKNKAECPLCKQPFDSIFHSVRAEDDFKEYVLRPSYNGSFVTPDRRFRYRTTLTRERNASVYSPSGPVNRRTTTPPDSGVLFEGLGISTRPRDVEIPQFMRQIAVRRPTTADERSL
binding (GST-UBXN7-UAS (human)): binds | binding (GST-UBXN7-WT (human)): binds

B4: Flag-TOPORS-Nter-CA (domain or fragment, UniProt Q9NS56 1-247)
chain: B3 chain with C103A
binding (GST-UBXN7-WT (human)): no binding

Continued, values first:

binding (GST-UBXN7-UAS (human)): binds | binding (GST-UBXN7-WT (human)): binds
B1: TOPORS (protein, UniProt Q9NS56 1-1045)
chain: MGSQPPLGSPLSREEGEAPPPAPASEGRRRSRRVRLRGSCRHRPSFLGCRELAASAPARPAPASSEIMASAAKEFKMDNFSPKAGTSKLQQTVPADASPDSKCPICLDRFDNVSYLDRCLHKFCFRCVQEWSKNKAECPLCKQPFDSIFHSVRAEDDFKEYVLRPSYNGSFVTPDRRFRYRTTLTRERNASVYSPSGPVNRRTTTPPDSGVLFEGLGISTRPRDVEIPQFMRQIAVRRPTTADERSLRKIQEQDIINFRRTLYRAGARVRNIEDGGRYRDISAEFFRRNPACLHRLVPWLKRELTVLFGAHGSLVNIVQHIIMSNVTRYDLESQAFVSDLRPFLLNRTEHFIHEFISFARSPFNMAAFDQHANYDCPAPSYEEGSHSDSSVITISPDEAETQELDINVATVSQAPWDDETPGPSYSSSEQVHVTMSSLLNTSDSSDEELVTGGATSQIQGVQTNDDLNNDSDDSSDNCVIVGFVKPLAERTPELVELSSDSEDLGSYEKMETVKTQEQEQSYSSGDSDVSRCSSPHSVLGKDEQINKGHCDSSTRIKSKKEEKRSTSLSSPRNLNSSVRGDRVYSPYNHRHRKRGRSRSSDSRSQSRSGHDQKNHRKHHGKKRMKSKRSRSRESSRPRGRRDKKRSRTRDSSWSRRSQTLSLSSESTSRSRSRSSDHGKRRSRSRNRDRYYLRNNYGSRYKWEYTYYSRNKDRDGYESSYRRRTLSRAHYSRQSSSPEFRVQSFSERTNARKKNNHSERKYYYYERHRSRSLSSNRSRTASTGTDRVRNEKPGGKRKYKTRHLEGTNEVAQPSREFASKAKDSHYQKSSSKLDGNYKNESDTFSDSRSSDRETKHKRRKRKTRSLSVEIVYEGKATDTTKHHKKKKKKHKKKHKKHHGDNASRSPVVITIDSDSDKDSEVKEDTECDNSGPQDPLQNEFLAPSLEPFETKDVVTIEAEFGVLDKECDIATLSNNLNNANKTVDNIPPLAASVEQTLDVREESTFVSDLENQPSNIVSLQTEPSRQLPSPRTSLMSVCLGRDCDMS

binding (Flag-PIRH2 (human)): no binding
B2: HA-UBXN7-WT (protein, UniProt O94888 1-489)
chain: T2 sequence
